Laboratory results from PMC4336329 (PLoS ONE, 2015).
Among all 310,000 compounds or so, about 14,000 (4.5%) showed an effect of 50% or more. Effects have a minus sign here. This is one part of the list.

Target: human ether-à-go-go-related gene (hERG) potassium channel (human, UniProt Q12809)
Assay: primary screen, population patch clamp on CHO cells stably expressing hERG
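Note: peak tail current of the secondary pulse compared with the same well before compound.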

Chain of human ether-à-go-go-related gene (hERG) potassium channel (Q12809 whole entry, looked up): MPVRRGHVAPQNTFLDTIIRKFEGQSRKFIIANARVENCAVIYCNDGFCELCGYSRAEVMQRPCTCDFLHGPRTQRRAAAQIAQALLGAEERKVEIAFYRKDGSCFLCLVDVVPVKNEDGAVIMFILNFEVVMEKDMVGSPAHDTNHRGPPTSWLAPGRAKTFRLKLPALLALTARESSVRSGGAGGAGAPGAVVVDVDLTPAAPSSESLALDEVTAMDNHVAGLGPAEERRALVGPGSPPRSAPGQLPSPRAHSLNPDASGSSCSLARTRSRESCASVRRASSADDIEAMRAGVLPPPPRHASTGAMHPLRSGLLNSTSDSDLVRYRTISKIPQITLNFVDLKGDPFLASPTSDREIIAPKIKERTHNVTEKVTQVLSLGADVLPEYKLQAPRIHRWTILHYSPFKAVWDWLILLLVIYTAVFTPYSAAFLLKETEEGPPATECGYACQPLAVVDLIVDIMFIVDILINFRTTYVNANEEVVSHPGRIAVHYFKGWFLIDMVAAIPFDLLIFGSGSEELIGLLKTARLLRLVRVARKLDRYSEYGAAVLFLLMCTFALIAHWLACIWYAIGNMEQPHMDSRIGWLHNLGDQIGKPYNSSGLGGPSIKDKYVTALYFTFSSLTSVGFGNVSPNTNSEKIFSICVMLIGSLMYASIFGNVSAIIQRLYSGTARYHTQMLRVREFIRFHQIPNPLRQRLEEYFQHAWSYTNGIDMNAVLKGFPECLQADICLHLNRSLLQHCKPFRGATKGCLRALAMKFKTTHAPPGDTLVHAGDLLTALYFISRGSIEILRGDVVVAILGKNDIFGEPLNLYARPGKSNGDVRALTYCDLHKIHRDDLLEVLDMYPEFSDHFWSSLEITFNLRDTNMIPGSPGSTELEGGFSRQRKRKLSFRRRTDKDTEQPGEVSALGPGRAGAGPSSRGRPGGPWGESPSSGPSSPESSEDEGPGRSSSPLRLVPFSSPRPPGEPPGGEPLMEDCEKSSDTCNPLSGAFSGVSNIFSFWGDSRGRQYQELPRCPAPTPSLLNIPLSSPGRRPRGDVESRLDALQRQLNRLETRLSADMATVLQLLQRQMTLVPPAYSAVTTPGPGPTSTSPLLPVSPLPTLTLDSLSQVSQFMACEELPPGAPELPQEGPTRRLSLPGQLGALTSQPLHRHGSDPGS

SMILES | hERG current change (%, negative = inhibition) at 10uM [%]
NC(=O)c1ccsc1NC(=O)COC(=O)Cc1ccsc1 | -16.9
CCN(CC)S(=O)(=O)c1ccc(N2CCOCC2)c(NC(=O)c2ccccc2)c1 | -25.6
Cc1ccccc1-c1nc(CN2CCC(C(=O)NCCCN3CCCC(C)C3)CC2)c(C)o1 (stereo not shown) | 28.6
COc1cc(/C=N/NC(=S)Nc2cccc(S(=O)(=O)N(C)C)c2)ccc1O | -9.56
O=C(CSc1nnc(CNC(=O)c2ccco2)o1)Nc1cccc(Cl)c1 | -23.9
Cc1cccc(NC(=S)NC2CC3CCCC(C2)N3Cc2ccccc2)c1C (stereo not shown) | -10.4
O=c1[nH]c(=O)n(-c2ccccc2)c(O)c1N=Nc1ccc(Br)cc1 | -9.32
COC(=O)C1=C(c2ccc(S(C)(=O)=O)cc2)C[C@@H]2CC[C@H]1N2C(=O)N1CCC(C)CC1 | -10.8
Cc1ccc(CNS(=O)(=O)c2ccc(C(F)(F)F)cc2)n1C | -0.938
C=CCn1c(SC)nnc1-c1ccc2ncccc2c1 | 3.82
CN1CCC(=NNC(=O)COc2ccc(Cl)cc2)CC1 | 17.4
Cc1ccc(CS(=O)(=O)Cc2ccc(C(=O)NCCCN3CCOCC3)o2)cc1 | 6.75
O=C(CN1CCC(c2nc3ccccc3s2)CC1)NCc1cccs1 | -37.2
Oc1sc(C=Nc2ccccc2)c2ccccc12 | 7.99
N#Cc1nc(-c2cccc3ccccc23)oc1NCC1CCCO1 (stereo not shown) | 11.4
COc1ccc(Cl)cc1NC(=O)c1nnn(CC(=O)Nc2ccc3c(c2)OCO3)c1N | 23.7
Cc1ccc(NC(=O)C2CC(=O)N(c3ccc4c(c3)OCCO4)C2)cc1S(=O)(=O)N(C)C (stereo not shown) | -8.57
CCC1(CC)Cc2ccccc2C(N)=C1C#N | -15.2
Cc1nn(CCc2n[nH]c(=S)n2C)c(C)c1Br | 5.63
O=C(c1cccc(N2C(=O)C3C4C=CC(C4)C3C2=O)c1)N1CCCc2ccccc21 (stereo not shown) | -22.9
Cc1nn(-c2ccccc2)c(=O)c2noc(C)c12 | 4.71
O=C(CCCSc1nc2ccccc2[nH]1)NCc1ccco1 | 0.369
COc1ccc(NC(=O)CN(C)C2CCCCC2)cc1Cl | -55

SMILES | hERG current change (%, negative = inhibition) at 10uM [%]
Cc1cccc2cc(CN(CC3CCCO3)S(=O)(=O)c3ccccc3)c(=O)[nH]c12 (stereo not shown) | -21.6
COC(=O)c1cccc(NS(=O)(=O)c2ccc(OC)c(OC)c2)c1C | -12.3
CC1(C)CCC(C)(C)NC(=S)N1 | 21.2
CCc1ccccc1NC(=O)CNC(=O)c1n[nH]c(=O)c2ccccc12 | 8.75
C/C(=N\N=C1\NC(=O)CS1)c1cccs1 | 21.6
O=C(Nc1ccc2c(c1)OCO2)c1c(Cl)nc2sccn12 | 3.72
CCOC(=O)N1CCN(C(=O)c2cn(C)c3ccc(S(=O)(=O)N(C)C4CCCCC4)cc3c2=O)CC1 | -29.4
COc1cc2c(cc1OC)C(C)N(CCN1C(=O)c3ccccc3C1=O)CC2 (stereo not shown) | 17.5
O=[N+]([O-])c1ccccc1/C=N\N1CCN(c2ccccc2)CC1 | 7.53
COCCNC(=O)C(=O)c1c(-c2ccccc2)[nH]c2ccccc12 | 1.69
Cn1c(O)c(N=NC(=O)C2COc3ccccc3O2)c2ccccc21 (stereo not shown) | -18.6
O=C(CSc1nc(C2CC2)nc2sc3c(c12)CCCC3)NCc1ccco1 | -6.99
COc1cccc(-c2nc3ccc(C(=O)N4CCCC(O)C4)cc3o2)c1 (stereo not shown) | 15.3
COC(=O)c1[nH]c2ccc(C)cc2c1NC(=O)CN1CCCC(C)(C)C1 | 0.331
COc1ccc2c(c1)C(=C(C#N)C#N)C(=O)N2CCc1ccccc1 | 7
Cc1cccc(OCC(O)Cn2c(=N)n(CCN3CCCCC3)c3ccccc32)c1.Cl (stereo not shown) | -80.5
COc1ccc(-n2c(=S)[nH]c(=O)c3cccnc32)cc1 | 15.6
CCOC(=O)c1ccccc1NC(=O)COC(=O)CSc1ccccc1 | 10.8
CC(C)Cn1cc(C(=O)NCCCN2CCCC2=O)c2c3ccccc3n(C)c2c1=O | -5.95
Cc1ccc(S(=O)(=O)NCC(=O)NCc2ccncc2)cc1 | 2.32
CCN1CC=C(c2c[nH]c3ccccc23)CC1 | -8.39
O=C(NCCCNc1ccnc2cc(Cl)ccc12)c1ccccc1F | -72.4
CC(C)(C)c1cc(NCc2ccccn2)n2ncc(-c3ccccc3)c2n1 | 15.6

SMILES | hERG current change (%, negative = inhibition) at 10uM [%]
O=C1C=C(Nc2ccccc2)C(=O)c2ccccc21 | 16.8
CCC(C)(C)NC(=O)/C=C/c1ccc(OC)c(S(=O)(=O)N2CCOCC2)c1 | 3.1
CCC(C)c1ccc(C(C)NC(=S)NCc2ccc(F)cc2)cc1 (stereo not shown) | 13.6
CN(CC(=O)Nc1ccccc1C(F)(F)F)C(=O)CSCc1ccccc1 | -8.02
O=C1CCCCC1Sc1nnc(Nc2ccccc2)s1 (stereo not shown) | -7.47
CC(COc1ccccc1Cc1ccccc1)N1CCCCC1.O=P(O)(O)O (stereo not shown) | -70.1
Cc1cccc(C)c1NC1=NC2(CCCCC2)N=C(N)N1 | 9.71
CCOc1cc(/C=N/NC(=O)c2cc(C)[nH]n2)ccc1OC(=O)c1ccc([N+](=O)[O-])cc1 | 18.1
CCCCN(C(=O)c1ccc2c(c1)OCO2)c1c(N)n(CCCC)c(=O)[nH]c1=O | 25.7
CC1CN(C(=S)Nc2ccccc2)CC(C)O1 (stereo not shown) | 2.54
CCCCNC(=S)Nc1ccc(C(F)(F)F)cc1 | -52.8
O=C(Cn1nnc(-c2ccc3c(c2)OCO3)n1)NCc1ccccc1 | 11.3
O=C(COC(=O)c1cccs1)NCC1CCCO1 (stereo not shown) | 10.6
COc1ccc(C(=O)C2CCN(C(=O)Nc3ccccc3C)CC2)cc1 | 9.14
Cc1nc2nc(SCc3ccccc3)[nH]n2c(=O)c1CCC(C)C | -22.4
CNC(=O)c1sccc1SCc1c(Cl)cccc1Cl | -13.4
Cc1cc(C(=O)COc2ncnc3sccc23)c(C)n1C | -1.03
Cc1nc(C)c(/C(O)=C/c2nc3ccc([N+](=O)[O-])cc3oc2=O)o1 | 19.8
CCOC(=O)c1c(C)[nH]c(/C(C)=N/O)c1C | 15
COc1ccc(CNC(=O)COC(=O)C2CCN(S(=O)(=O)c3ccccc3C(F)(F)F)CC2)cc1 | -4.19
CCN(CC(=O)Nc1c(C(=O)OC)[nH]c2ccc(Cl)cc12)c1ccc2c(c1)OCO2 | 20.3
COC(=O)c1cccc(N2C(=O)C3CC=CCC3C2=O)c1 (stereo not shown) | 7.23
CCOC(=O)C1CCCN(C(=O)c2ccc(CS(=O)(=O)Cc3ccccc3C)o2)C1 (stereo not shown) | -22

SMILES | hERG current change (%, negative = inhibition) at 10uM [%]
COc1ccccc1-c1nnc(Nc2nc3c(OC)cccc3s2)o1 | 7.81
C=CCNC(=O)CN1CCC(c2nc3cc(C)c(C)cc3[nH]2)CC1 | -39.6
COc1ccc(N2CCN(Cc3nc4scc(-c5cccs5)c4c(=O)[nH]3)CC2)cc1 | 8.57
CCN(CC)CC(=O)N1CCCC(C(=O)c2ccccc2OC)C1 (stereo not shown) | -10.3
O=C1CNC(=S)N1C(CO)c1ccccc1 (stereo not shown) | 22.2
Cc1ccc(NC(=O)NCCCN2CCCC2=O)cc1Cl | 5.63
Cc1ccc(NS(=O)(=O)c2cccc3nsnc23)cc1C | -5.57
CSc1ccccc1OCc1cc(C(=O)N(Cc2nccn2C)C(C)C)no1 | -7.73
CCCCCCNC(=O)Cc1nc2nc(C)cc(C)n2n1 | -0.975
CCc1ccc(NC(=O)CCCNC(=O)Cn2cnc3sc(C)c(C)c3c2=O)cc1 | 3.86
Cc1nccc(-c2ccc(-n3cnc4ccccc43)cc2)n1 | -20.3
COC(=O)CCCNS(=O)(=O)c1ccc2ccccc2c1 | 2.23
COc1cc(S(=O)(=O)NCc2ccccc2)ccc1F | 6.67
Cc1ccc(CNC(=O)C2CC(c3ccc([N+](=O)[O-])cc3)=NO2)cc1 (stereo not shown) | -37.3
COc1cc(/C=C2\C(=N)N3N=C(CC(=O)N4CCOCC4)SC3=NC2=O)cc(OC)c1OC | 15.6
COc1ccc(S(=O)(=O)N2CCN(C(=O)c3cc4c(s3)CCCC4)CC2)cc1 | -16.2
CCOC(=O)N1CCN(C(=O)c2ccc(-n3c(=S)[nH]c4ccccc4c3=O)cc2)CC1 | 9.37
CC1CCCCN1C(=O)c1cnn2c(C(F)(F)F)cc(-c3ccco3)nc12 (stereo not shown) | -10.6
Cn1c(SCC(=O)N2CCOCC2)nnc1-c1ccc2ncccc2c1 | 15.4
O=C(CN1CCN(C(c2ccccc2)c2ccccc2)CC1)NCc1ccccc1 | 8.58
O=C(NCC1CCCO1)c1ccccc1OCc1ccc(F)cc1 (stereo not shown) | -12.8
Cc1ccc(NC(CC(=O)c2ccccc2)C(=O)O)cc1Cl (stereo not shown) | 16.4
